The other results are listed elsewhere or left out. Repeats are few or missing, and single values can be far off.
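Note: cell number obtained by counting DAPI-stained nuclei in high-throughput microscope images with image analysis software, screen run in 1,536-well plates.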

This experiment relates to COLO800. Kind of experiment: cell count relative to DMSO control; melanoma cells; higher = more viable cells. Conditions: library dose: low library concentration; 72 h.
`CCN(CC)CCNC(=O)c1c(C)[nH]c(/C=C2\C(=O)Nc3ccc(F)cc32)c1C` [sunitinib] + Clc1ccc(Nc2nnc(Cc3ccncc3)c3ccccc23)cc1 [vatalanib] (first compound 0.4 µM, partner dose 2 µM) gave a cell count of 43%.
To `COc1cc([C@@H]2c3cc4c(cc3[C@@H](O[C@@H]3O[C@@H]5CO[C@@H](C)O[C@H]5[C@H](O)[C@H]3O)[C@H]3COC(=O)[C@H]23)OCO4)cc(OC)c1O` [etoposide] + Cn1c(Nc2ccc(C(F)(F)F)cc2)nc2cc(Oc3ccnc(-c4ncc(C(F)(F)F)[nH]4)c3)ccc21 [CHIR265] (first compound 0.02 µM, partner dose 0.08 µM) belongs 80.8%; to `CCN(CC)CCNC(=O)c1c(C)[nH]c(/C=C2\C(=O)Nc3ccc(F)cc32)c1C` [sunitinib] + O=C(O)[C@@H]1[O][Sb](=[O])([O][Sb]2(=[O])[O][C@H]([C@H](O)CO)[C@H](O)[C@H](C(=O)O)[O]2)[O][C@H]([C@H](O)CO)[C@@H]1O [stibogluconate] (first compound 0.4 µM, partner dose 2 µM), 118%.
As for `COc1cc([C@@H]2c3cc4c(cc3[C@@H](O[C@@H]3O[C@@H]5CO[C@@H](C)O[C@H]5[C@H](O)[C@H]3O)[C@H]3COC(=O)[C@H]23)OCO4)cc(OC)c1O` [etoposide] + Cc1nc(Nc2ncc(C(=O)Nc3c(C)cccc3Cl)s2)cc(N2CCN(CCO)CC2)n1 [dasatanib] (first compound 0.02 µM, partner dose 0.004 µM), the figure is 67.8%; as for `COc1cc([C@@H]2c3cc4c(cc3[C@@H](O[C@@H]3O[C@@H]5CO[C@@H](C)O[C@H]5[C@H](O)[C@H]3O)[C@H]3COC(=O)[C@H]23)OCO4)cc(OC)c1O` [etoposide] + O=c1[nH]nc(Sc2ncc([N+](=O)[O-])s2)n1-c1ccc2c(c1)OCCO2 [BI78D3] (first compound 0.02 µM, partner dose 0.2 µM), 108%; as for `Cn1cnc2c(F)c(Nc3ccc(Br)cc3Cl)c(C(=O)NOCCO)cc21` [selumetinib] + Nc1nc(F)nc2c1ncn2[C@@H]1O[C@H](CO)[C@@H](O)[C@@H]1O [fludarabine] (first compound 0.015 µM, partner dose 0.2 µM), 161%.
Regarding `Cn1cnc2c(F)c(Nc3ccc(Br)cc3Cl)c(C(=O)NOCCO)cc21` [selumetinib] + Clc1ccc(Nc2nnc(Cc3ccncc3)c3ccccc23)cc1 [vatalanib] (first compound 0.015 µM, partner dose 2 µM), the cell count came to 92.8%.
To `CCN(CC)CCNC(=O)c1c(C)[nH]c(/C=C2\C(=O)Nc3ccc(F)cc32)c1C` [sunitinib] + O=C(O)c1ccc2c(c1)nc(Nc1cccc(Cl)c1)c1ccncc12 [CX4945] (first compound 0.4 µM, partner dose 0.4 µM) belongs 67.5%; to `C[C@]1(O)C[C@@H](c2nc(-c3ccc4ccc(-c5ccccc5)nc4c3)c3c(N)nccn32)C1` + NC1(c2ccc(-c3nc4ccn5c(=O)[nH]nc5c4cc3-c3ccccc3)cc2)CCC1 [MK2206] (first compound 0.4 µM, partner dose 0.4 µM), 105%; to `C[C@]1(O)C[C@@H](c2nc(-c3ccc4ccc(-c5ccccc5)nc4c3)c3c(N)nccn32)C1` + CCCS(=O)(=O)Nc1ccc(F)c(C(=O)c2c[nH]c3ncc(Cl)cc23)c1F [PLX4720] (first compound 0.4 µM, partner dose 0.08 µM), 54.8%.
As for `C[C@]1(O)C[C@@H](c2nc(-c3ccc4ccc(-c5ccccc5)nc4c3)c3c(N)nccn32)C1` + C[C@]1(c2nc3c(C(N)=O)cccc3[nH]2)CCCN1 [Veliparib] (first compound 0.4 µM, partner dose 1.4 µM), the figure is 78.3%; as for `COc1cc([C@@H]2c3cc4c(cc3[C@@H](O[C@@H]3O[C@@H]5CO[C@@H](C)O[C@H]5[C@H](O)[C@H]3O)[C@H]3COC(=O)[C@H]23)OCO4)cc(OC)c1O` [etoposide] + CN(c1ncccc1CNc1nc(Nc2ccc3c(c2)CC(=O)N3)ncc1C(F)(F)F)S(C)(=O)=O [PF562271] (first compound 0.02 µM, partner dose 0.08 µM), 74.7%.
As for `C[C@]1(O)C[C@@H](c2nc(-c3ccc4ccc(-c5ccccc5)nc4c3)c3c(N)nccn32)C1` + Clc1ccc(Nc2nnc(Cc3ccncc3)c3ccccc23)cc1 [vatalanib] (first compound 0.4 µM, partner dose 2 µM), the figure is 41.7%; as for `COc1cc([C@@H]2c3cc4c(cc3[C@@H](O[C@@H]3O[C@@H]5CO[C@@H](C)O[C@H]5[C@H](O)[C@H]3O)[C@H]3COC(=O)[C@H]23)OCO4)cc(OC)c1O` [etoposide] + O=C(O)[C@@H]1[O][Sb](=[O])([O][Sb]2(=[O])[O][C@H]([C@H](O)CO)[C@H](O)[C@H](C(=O)O)[O]2)[O][C@H]([C@H](O)CO)[C@@H]1O [stibogluconate] (first compound 0.02 µM, partner dose 2 µM), 112%; as for `CCN(CC)CCNC(=O)c1c(C)[nH]c(/C=C2\C(=O)Nc3ccc(F)cc32)c1C` [sunitinib] + Cn1c(Nc2ccc(C(F)(F)F)cc2)nc2cc(Oc3ccnc(-c4ncc(C(F)(F)F)[nH]4)c3)ccc21 [CHIR265] (first compound 0.4 µM, partner dose 0.08 µM), 79.9%.
As for `CCN(CC)CCNC(=O)c1c(C)[nH]c(/C=C2\C(=O)Nc3ccc(F)cc32)c1C` [sunitinib] + CNC(=O)c1cc(Oc2ccc(NC(=O)Nc3ccc(Cl)c(C(F)(F)F)c3)cc2)ccn1 [sorafenib] (first compound 0.4 µM, partner dose 0.4 µM), the cell count is 105%.
To `C[C@]1(O)C[C@@H](c2nc(-c3ccc4ccc(-c5ccccc5)nc4c3)c3c(N)nccn32)C1` + C=C(c1ccc(C(=O)O)cc1)c1cc2c(cc1C)C(C)(C)CCC2(C)C [Bexarotene] (first compound 0.4 µM, partner dose 2 µM) belongs 82.7%; to `CCN(CC)CCNC(=O)c1c(C)[nH]c(/C=C2\C(=O)Nc3ccc(F)cc32)c1C` [sunitinib] + CN(c1ncccc1CNc1nc(Nc2ccc3c(c2)CC(=O)N3)ncc1C(F)(F)F)S(C)(=O)=O [PF562271] (first compound 0.4 µM, partner dose 0.08 µM), 58.2%; to `CCN(CC)CCNC(=O)c1c(C)[nH]c(/C=C2\C(=O)Nc3ccc(F)cc32)c1C` [sunitinib] + NC1(c2ccc(-c3nc4ccn5c(=O)[nH]nc5c4cc3-c3ccccc3)cc2)CCC1 [MK2206] (first compound 0.4 µM, partner dose 0.4 µM), 48.4%.
As for `Cn1cnc2c(F)c(Nc3ccc(Br)cc3Cl)c(C(=O)NOCCO)cc21` [selumetinib] + CNC(=O)c1cc(Oc2ccc(NC(=O)Nc3ccc(Cl)c(C(F)(F)F)c3)cc2)ccn1 [sorafenib] (first compound 0.015 µM, partner dose 0.4 µM), the figure is 109%; as for `Cn1cnc2c(F)c(Nc3ccc(Br)cc3Cl)c(C(=O)NOCCO)cc21` [selumetinib] + Cc1cc(Nc2cc(N3CCN(C)CC3)nc(/C=C/c3ccccc3)n2)n[nH]1 [ENMD2076] (first compound 0.015 µM, partner dose 0.04 µM), 90.3%.
To `COc1cc([C@@H]2c3cc4c(cc3[C@@H](O[C@@H]3O[C@@H]5CO[C@@H](C)O[C@H]5[C@H](O)[C@H]3O)[C@H]3COC(=O)[C@H]23)OCO4)cc(OC)c1O` [etoposide] + Nc1nc(F)nc2c1ncn2[C@@H]1O[C@H](CO)[C@@H](O)[C@@H]1O [fludarabine] (first compound 0.02 µM, partner dose 0.2 µM) belongs 74.9%.
As to `COc1cc([C@@H]2c3cc4c(cc3[C@@H](O[C@@H]3O[C@@H]5CO[C@@H](C)O[C@H]5[C@H](O)[C@H]3O)[C@H]3COC(=O)[C@H]23)OCO4)cc(OC)c1O` [etoposide] + Cn1sc(=O)n(Cc2ccccc2)c1=O [TDZD-8] (first compound 0.02 µM, partner dose 0.4 µM), the cell count is 93.3%.
As for `Cn1cnc2c(F)c(Nc3ccc(Br)cc3Cl)c(C(=O)NOCCO)cc21` [selumetinib] + CO[C@H]1C[C@@H]2CC[C@@H](C)[C@@](O)(O2)C(=O)C(=O)N2CCCC[C@H]2C(=O)O[C@H]([C@H](C)C[C@@H]2CC[C@@H](OCCO)[C@H](OC)C2)CC(=O)[C@H](C)/C=C(\C)[C@@H](O)[C@@H](OC)C(=O)[C@H](C)C[C@H](C)/C=C/C=C/C=C/1C [everolimus] (first compound 0.015 µM, partner dose 0.02 µM), the figure is 75.9%.
To `Cn1cnc2c(F)c(Nc3ccc(Br)cc3Cl)c(C(=O)NOCCO)cc21` [selumetinib] + COc1ccc(C2=N[C@@H](c3ccc(Cl)cc3)[C@@H](c3ccc(Cl)cc3)N2C(=O)N2CCNC(=O)C2)c(OC(C)C)c1 [Nutlin-3] (first compound 0.015 µM, partner dose 0.1 µM) belongs 95.5%; to `C[C@]1(O)C[C@@H](c2nc(-c3ccc4ccc(-c5ccccc5)nc4c3)c3c(N)nccn32)C1` + CN(c1ncccc1CNc1nc(Nc2ccc3c(c2)CC(=O)N3)ncc1C(F)(F)F)S(C)(=O)=O [PF562271] (first compound 0.4 µM, partner dose 0.08 µM), 53.9%.

The record behind these values is the supplement of paper PMC4604168 (melanoma cell lines).
